# Results: the RNAGym collection of RNA variant scans (doi:10.7554/elife.90254)
# The source gives no read counts; variants with many changes may rest on few reads.
# B1: OR4K15 (parent)
# chain: GUUAACGGUCAUAGGCCAUGGAAACUAGGAGCACCAUUUCGCUGCCAGUGAAGAAAUGAACAAAGAAAAUCUGGGCCAGGCAGGCAUCAAAAGAAAUAGUCUUGCGCUCAACCAGAAAGUCUGUAAUCAUUUUAAGGGUA
# Variants of: B1
# Experiment: self-cleavage, relative activity (ratio to wild type); higher = more cleavage; in vitro, sequencing; the parent is a self-cleaving ribozyme
row,Variant,self-cleavage
1,A27G G28U A51G C121A,2.09
2,A24G A33G A82G,0.74
3,A51G A111G A134G,0
4,U26C G28A A33G A90G U130C,0
5,C25U A66G U70C A95G U102C,0.83
6,U39C A82G A86G A91G,0.04
7,U19A U49C A69G U131C,0.68
8,U9C U19C A33U,1.39
9,C77A A96U A118U,0.54
10,A66G A67G U87C A95G U108C U120A U130C,0.01
11,A91G C101U A116G A140U,0.17
12,U19A U39C A90G,1.67
13,A30U A66G U87A,2.34
14,A62G A82G A140C,0.61
15,C34U A52G A60G,1.42
16,U87C U103C U120C,0.18
17,U49G A60G U108C,0.05
18,A51U A55G A69G U100C,1.22
19,A56G A59G A69G U72A A117G,0.48
20,U39C A59G A68U A90G,1.36
21,U2C A36G A55G A56G A90G A96G,1.23
22,A11G A118G G137U,1.02
23,A11G A56G U100A A116G A126G,0.11
24,U19C U57C A64G A78G A117G,0.4

row,Variant,self-cleavage
1,A86U A110G A117C A134G,0.02
2,A13G C46U A89C,1.47
3,G50A A62G G84U U124C,0.27
4,U39C U132C A140G,1.5
5,U9C U43C A55G A91G,1.05
6,A47G A92G U120C,0.19
7,U9C A91G A94G U130C,0.65
8,A18G U38C C40A,0.45
9,A24G A89U U102C U103C,0.27
10,A54C A56G U120C,0.54
11,A4G A5G U9C A59U A66U A125G,0.69
12,A23G A24G U49C A52G A54G A55G U133C A134G,0.36
13,A18G A24G U39C A47G A66G A96U,1
14,A30G U39C U70C,0.44
15,A27G U72C U131C,0.03
16,G7U A95U U102C,2.41
17,A54U U97A U102G U103G A118G,0.02
18,U72C A78G A140G,0
19,A18U U43C A47U U49C A64G U72C A126G,0.1
20,A18G G41A A55G U57C,1.61
21,U39A A96G A118G,0.99
22,A5G A36G C61A U131C,0.86
23,A13G G44A U120C,0.96
24,A51G A94G A98G U102C,1.07

row,Variant,self-cleavage
1,U49C A96G U122C,1.79
2,A24G A51G A126G,0.58
3,U100C U122C U127A,2.4
4,U72C U102A A118G,0.03
5,A54G A56G G106C,0.01
6,A18G U100C G136A,2.27
7,U72C A96G A111G,0.03
8,A114U A129G U131C,0
9,A18U A47G U97C,0.73
10,A5U C88U A111G,0.08
11,A47U G83U A92G,0.37
12,A27G A54G C71U C77A A116G,0.19
13,U26C U43A A91G A126G,1.34
14,U49C A60U A95G A96G,2.09
15,A66U A117G A118G A134G,1.4
16,G7A A22G U26A G41U,0.61
17,A30G U49G A89G,0.71
18,A59G A96G U130C U132C,0.92
19,A5G A33G A86U,1.27
20,U38A A47G A92U A125C G136A,0.85
21,U57G A62G A82G A118G G123A,0.08
22,A56G A62U U139C,2.12
23,U37C A91G U132C,0.92
24,C10U A52G U108C,0.01

row,Variant,self-cleavage
1,G7A A56G A60G U131C,0.78
2,U19C A111G G115U,0.01
3,A24G A51G A60G U72C A91G,0.22
4,A82U A91G A116G,0.09
5,A11U A13G A36G A91C,1.4
6,A22G A24G A56G A116G U139C,0.76
7,U2C A36G A47U A125G U130C,0.16
8,A13G A64U A86G,0.88
9,A55G A89U U108C,0.01
10,A63G U131C A135G,1.32
11,A11G A52U A54G U57C A59G A67G A117G A118G,0.92
12,G20U A129G U132C,1.97
13,A23G A69G U70C,0.45
14,G14U A60U A82U U103A,0.72
15,A82U A94G A126U,0.16
16,A60U U103A A129C,0.6
17,U12A A90G U103C A140G,0.22
18,U9C U57A A114C,0.04
19,U12C A18G U132C,1.23
20,U9C U57C A86G,1.22
21,A47G A56G A62G A90G A91G U100A A134G,0.1
22,U12A A27C U43C A62G,2.18
23,A33G U87C A98G,1.73
24,A22G U127C A129G U131C,0.39

row,Variant,self-cleavage
1,U9C A60G U130C,0.72
2,C6U U57C A114G,1.37
3,A36G A62G A110G A117G,0.17
4,G41C A52G A68C U108C,0.05
5,A86G A95G A118G,2.22
6,A11U A24G U49C A95C,1.05
7,U3A A86G A92G U131C,1.35
8,A23G A69G C85U A129U,0.29
9,A18C A22C A89G,1.06
10,A30G U38A A59G A86U A98U,0.41
11,A67G U108G A116U U127C,0
12,G50A A51G A62U A67G,0.58
13,A24G A117G A125G U127A,2.08
14,A67G A68G U102A,0.67
15,A18U U103C A111G,0.04
16,U2C A82U A91C U108C U120C,0.02
17,A13G A23G A33U U57C U100C A114G,1.48
18,A30U A78G A94G U127C,0.13
19,A5G U43A G75A A118G U130A,0.13
20,A23G C42U A47U A52G,0.46
21,U19C A22G U43G A69G C112U,0.07
22,A67G A89U A114U A140G,0.04
23,A36U A82G U87C,0.62
24,A24G G74U U103C A118G,0.05

row,Variant,self-cleavage
1,A24G A47U U49C A54G A91G A94G U124C A126G A140G,0.04
2,A91U A118G A129G U133C,0.29
3,U49G A116G A117C,0.04
4,G7A A95G U103C U127C A135G,0.92
5,A22G A36G U108C,0.03
6,U72G A78G A89U A117G,0.23
7,A5G U38A A60G A78G A82U,0.2
8,G44A A51G A95G,1.27
9,G83A A116G A126G,0.93
10,U39C U102A U130C,0.7
11,A22G U49C A68G U87A A96U,1.43
12,A24G A51C A78U U122C,0.08
13,A36G A51G U122C,1.96
14,A23G A56G C81U,0.48
15,A33C A89G A126G,0.98
16,A18G A22U A60G A68G A69G G104A A117G,0.11
17,A91G A94U U132C,0.54
18,G44A A68G A126G,0.73
19,A118G A129C U130C,0.21
20,A23G A27U U43A A54U A110G A116U U122C U133A,0.02
21,G15A A118C U122C,0.49
22,U9C A55G A98U,0.95
23,U2C U72A A117G,0.21
24,A18U A63C U131C,1.92

row,Variant,self-cleavage
1,A96U U100C A118G,2.75
2,A4G A78G A117G U131C,0.59
3,A23U U100C A117G A140G,2.17
4,A30G A78U G104A U130C,0
5,U12C A56G A59G U97C,1.2
6,U57C A62G A69U,1.52
7,A51G A62G A68G A118G,0.57
8,U43C A62U U87C U132C,0.63
9,A51G A69C A89U U131C,0.5
10,A63G A90U A117G,1.85
11,A60G A64G A91G A94U U120C U132C,0.26
12,A23G A68G U70G A117G A129G,0.14
13,A18U A55G A56G A69G A94G,1.01
14,A33U U49C A55G A56G A117G,1.57
15,U3C A36G A64G A69G,0.97
16,A33G A64C A68G,0.97
17,A30G A60G U108C,0.03
18,C46U A60C A64G,1.08
19,A52G A68G A116C A118G,0.09
20,A5G A66G U97A A111U A117G,0.11
21,A22G A62G A66G A78G A110U,0.97
22,A60G A95G A129G,1.44
23,U9C A11G U102C A126G,0.88
